Assay results: article PMC12820563, “FoxP3 forms a head-to-head dimer in vivo and stabilizes its multimerization on adjacent microsatellites”
The list shows a part of the results.

Target: T1, MBP-FoxP1dN (Mus musculus, UniProt P58462 326-579)
T1 sequence: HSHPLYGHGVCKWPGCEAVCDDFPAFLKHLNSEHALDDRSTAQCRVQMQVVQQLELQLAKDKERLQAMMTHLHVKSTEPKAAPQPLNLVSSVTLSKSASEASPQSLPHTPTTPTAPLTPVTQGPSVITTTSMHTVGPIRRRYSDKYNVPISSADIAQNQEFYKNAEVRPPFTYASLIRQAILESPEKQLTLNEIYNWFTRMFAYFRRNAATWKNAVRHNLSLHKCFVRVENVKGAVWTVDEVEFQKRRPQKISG
Test: PD-seq (MBP pull-down with sequencing); 20 mM Tris-HCl pH 7.5, 100 mM NaCl, 1.5 mM MgCl2, 0.4 uM protein, 0.1 uM dsDNA library, 30 min, room temperature, amylose pull-down; high values mean tight binding
Conditions: protein: recombinant; tags: His6-MBP; chain copies: 2; dsDNA, one strand shown
In short: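 A degenerate double-stranded DNA library, filled in with Klenow, was added at 0.1 µM to 0.4 µM His6-MBP-tagged mouse FoxP3 or FoxP1 fragment lacking the N-terminus, expressed in E. coli. Incubation lasted 30 min at room temperature in Tris pH 7.5 buffer with NaCl and MgCl2, after which complexes were collected on amylose resin, washed three times, digested with proteinase K to free the DNA, barcoded by PCR and sequenced by Illumina. Binding is the pooled-replicate reads-per-million enrichment of pull-down over input.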

Point of comparison: “GATGATTGTTCTCCCAGCTGATGAATTGCGCCTATCGAGTAAACAAATTTTCCTAATCTTTCTGTTCAAGCGCCATCTAC”, binding signal 1.08 RPM ratio (pull-down/input). Against it:
- GATGATTGTTCTCCCAGCTGATGAATTTCGCAATTCGAGTAAACAAATTTTCCTAATCTTTCTGTTCAAGCGCCATCTAC — lower, 0.971 RPM ratio (pull-down/input)
- GATGATTGTTCTCCCAGCTGATGAATTAGAGCGGTCGAGTAAACAAATTTTCCTAATCTTTCTGTTCAAGCGCCATCTAC — lower, 0.807 RPM ratio (pull-down/input)
- GATGATTGTTCTCCCAGCTGATGAATTCGCTCTATCGAGTAAACAAATTTTCCTAATCTTTCTGTTCAAGCGCCATCTAC — lower, 0.853 RPM ratio (pull-down/input)
- GATGATTGTTCTCCCAGCTGATGAATTGCACATATCGAGTAAACAAATTTTCCTAATCTTTCTGTTCAAGCGCCATCTAC — higher, 1.36 RPM ratio (pull-down/input)
- GATGATTGTTCTCCCAGCTGATGAATTGTTGTCATCGAGTAAACAAATTTTCCTAATCTTTCTGTTCAAGCGCCATCTAC — higher, 2.36 RPM ratio (pull-down/input)
- GATGATTGTTCTCCCAGCTGATGAATTGTATAAGTCGAGTAAACAAATTTTCCTAATCTTTCTGTTCAAGCGCCATCTAC — lower, 1.02 RPM ratio (pull-down/input)
- GATGATTGTTCTCCCAGCTGATGAATTGGTACTTTCGAGTAAACAAATTTTCCTAATCTTTCTGTTCAAGCGCCATCTAC — the same, 1.08 RPM ratio (pull-down/input)
- GATGATTGTTCTCCCAGCTGATGAATTGTTGATTTCGAGTAAACAAATTTTCCTAATCTTTCTGTTCAAGCGCCATCTAC — higher, 2.42 RPM ratio (pull-down/input)
- GATGATTGTTCTCCCAGCTGATGAATTGTGTGGTTCGAGTAAACAAATTTTCCTAATCTTTCTGTTCAAGCGCCATCTAC — higher, 1.15 RPM ratio (pull-down/input)
- GATGATTGTTCTCCCAGCTGATGAATTTGAGTCGTCGAGTAAACAAATTTTCCTAATCTTTCTGTTCAAGCGCCATCTAC — lower, 0.906 RPM ratio (pull-down/input)
- GATGATTGTTCTCCCAGCTGATGAATTTGCACCTTCGAGTAAACAAATTTTCCTAATCTTTCTGTTCAAGCGCCATCTAC — lower, 0.956 RPM ratio (pull-down/input)
- GATGATTGTTCTCCCAGCTGATGAATTGCATTATTCGAGTAAACAAATTTTCCTAATCTTTCTGTTCAAGCGCCATCTAC — higher, 1.62 RPM ratio (pull-down/input)
- GATGATTGTTCTCCCAGCTGATGAATTGTGAGCCTCGAGTAAACAAATTTTCCTAATCTTTCTGTTCAAGCGCCATCTAC — lower, 0.988 RPM ratio (pull-down/input)
- GATGATTGTTCTCCCAGCTGATGAATTGGTCGAGTCGAGTAAACAAATTTTCCTAATCTTTCTGTTCAAGCGCCATCTAC — lower, 0.835 RPM ratio (pull-down/input)
- GATGATTGTTCTCCCAGCTGATGAATTTTCGTCGTCGAGTAAACAAATTTTCCTAATCTTTCTGTTCAAGCGCCATCTAC — lower, 0.939 RPM ratio (pull-down/input)
- GATGATTGTTCTCCCAGCTGATGAATTATGTGTTTCGAGTAAACAAATTTTCCTAATCTTTCTGTTCAAGCGCCATCTAC — higher, 1.51 RPM ratio (pull-down/input)
- GATGATTGTTCTCCCAGCTGATGAATTATGACTTTCGAGTAAACAAATTTTCCTAATCTTTCTGTTCAAGCGCCATCTAC — lower, 1.01 RPM ratio (pull-down/input)
- GATGATTGTTCTCCCAGCTGATGAATTTAATAATTCGAGTAAACAAATTTTCCTAATCTTTCTGTTCAAGCGCCATCTAC — higher, 1.1 RPM ratio (pull-down/input)
- GATGATTGTTCTCCCAGCTGATGAATTCGTTTGCTCGAGTAAACAAATTTTCCTAATCTTTCTGTTCAAGCGCCATCTAC — lower, 0.977 RPM ratio (pull-down/input)
- GATGATTGTTCTCCCAGCTGATGAATTCCCTTTATCGAGTAAACAAATTTTCCTAATCTTTCTGTTCAAGCGCCATCTAC — lower, 0.868 RPM ratio (pull-down/input)
- GATGATTGTTCTCCCAGCTGATGAATTGTATTGATCGAGTAAACAAATTTTCCTAATCTTTCTGTTCAAGCGCCATCTAC — higher, 2.22 RPM ratio (pull-down/input)
- GATGATTGTTCTCCCAGCTGATGAATTCGAGGATTCGAGTAAACAAATTTTCCTAATCTTTCTGTTCAAGCGCCATCTAC — lower, 0.805 RPM ratio (pull-down/input)
- GATGATTGTTCTCCCAGCTGATGAATTTTGGAACTCGAGTAAACAAATTTTCCTAATCTTTCTGTTCAAGCGCCATCTAC — lower, 0.835 RPM ratio (pull-down/input)
- GATGATTGTTCTCCCAGCTGATGAATTTTAGCGGTCGAGTAAACAAATTTTCCTAATCTTTCTGTTCAAGCGCCATCTAC — lower, 0.835 RPM ratio (pull-down/input)
- GATGATTGTTCTCCCAGCTGATGAATTTCGCTGCTCGAGTAAACAAATTTTCCTAATCTTTCTGTTCAAGCGCCATCTAC — lower, 0.823 RPM ratio (pull-down/input)
- GATGATTGTTCTCCCAGCTGATGAATTTGATACTTCGAGTAAACAAATTTTCCTAATCTTTCTGTTCAAGCGCCATCTAC — lower, 0.987 RPM ratio (pull-down/input)
- GATGATTGTTCTCCCAGCTGATGAATTCATCTGCTCGAGTAAACAAATTTTCCTAATCTTTCTGTTCAAGCGCCATCTAC — lower, 0.781 RPM ratio (pull-down/input)
- GATGATTGTTCTCCCAGCTGATGAATTATGGAAGTCGAGTAAACAAATTTTCCTAATCTTTCTGTTCAAGCGCCATCTAC — lower, 0.876 RPM ratio (pull-down/input)
- GATGATTGTTCTCCCAGCTGATGAATTCCTCCGGTCGAGTAAACAAATTTTCCTAATCTTTCTGTTCAAGCGCCATCTAC — lower, 0.756 RPM ratio (pull-down/input)
- GATGATTGTTCTCCCAGCTGATGAATTGTTCCCGTCGAGTAAACAAATTTTCCTAATCTTTCTGTTCAAGCGCCATCTAC — lower, 1.04 RPM ratio (pull-down/input)
- GATGATTGTTCTCCCAGCTGATGAATTACGCGACTCGAGTAAACAAATTTTCCTAATCTTTCTGTTCAAGCGCCATCTAC — lower, 0.92 RPM ratio (pull-down/input)
- GATGATTGTTCTCCCAGCTGATGAATTTGTCCCGTCGAGTAAACAAATTTTCCTAATCTTTCTGTTCAAGCGCCATCTAC — lower, 1.01 RPM ratio (pull-down/input)
- GATGATTGTTCTCCCAGCTGATGAATTAAGAGAATCGAGTAAACAAATTTTCCTAATCTTTCTGTTCAAGCGCCATCTAC — lower, 0.949 RPM ratio (pull-down/input)
- GATGATTGTTCTCCCAGCTGATGAATTAAACTGATCGAGTAAACAAATTTTCCTAATCTTTCTGTTCAAGCGCCATCTAC — lower, 0.977 RPM ratio (pull-down/input)
- GATGATTGTTCTCCCAGCTGATGAATTTATCGCGTCGAGTAAACAAATTTTCCTAATCTTTCTGTTCAAGCGCCATCTAC — higher, 1.12 RPM ratio (pull-down/input)
- GATGATTGTTCTCCCAGCTGATGAATTTAAAATCTCGAGTAAACAAATTTTCCTAATCTTTCTGTTCAAGCGCCATCTAC — lower, 0.867 RPM ratio (pull-down/input)
- GATGATTGTTCTCCCAGCTGATGAATTCTGGTGATCGAGTAAACAAATTTTCCTAATCTTTCTGTTCAAGCGCCATCTAC — lower, 0.929 RPM ratio (pull-down/input)
- GATGATTGTTCTCCCAGCTGATGAATTACATTTATCGAGTAAACAAATTTTCCTAATCTTTCTGTTCAAGCGCCATCTAC — higher, 1.52 RPM ratio (pull-down/input)
- GATGATTGTTCTCCCAGCTGATGAATTAATATCCTCGAGTAAACAAATTTTCCTAATCTTTCTGTTCAAGCGCCATCTAC — lower, 0.937 RPM ratio (pull-down/input)
